The source of these data is the supplement of paper PMC9446081.

Each structure is given as a SMILES string. About 220 (0.56%) of roughly 39,000 compounds showed activity. The list shows a part of the results.
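Further: static incubation at 37 °C against the wild-type strain, values averaged over two biological replicates.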

For the assay, the system named is Escherichia coli K-12 BW25113. Description: relative growth (OD600 normalised to plate interquartile mean) (fraction); higher = less growth inhibition, active = 0.2 or less. The note with it: 50 µM; LB; incubation time: overnight (16-24 h).
In the case of `C[C@H]1CN([C@@H](C)CO)C(=O)c2cc(NS(=O)(=O)c3ccc(F)cc3)ccc2O[C@H]1CN(C)Cc1ccc(Cl)c(Cl)c1`, the relative growth was inactive: 0.509.
Under `COc1ccc(S(=O)(=O)Nc2ccc3c(c2)C(=O)N([C@H](C)CO)C[C@@H](C)[C@H](CN(C)C(=O)Nc2cccc4ccccc24)O3)cc1` stands inactive: 0.892; under `CC(=O)OC[C@H](N)C(=O)O`, inactive: 1.04.
Regarding `C[C@@H]1CN([C@H](C)CO)C(=O)CCCn2nncc2CO[C@H]1CN(C)S(=O)(=O)c1ccc(C#N)cc1`, the relative growth is inactive: 1.
Take `C=CCC[C@@H](Cc1ccc(F)cc1)C(=O)O[C@H](CNC(=O)[C@@H](CC=C)CC(=O)N(CCO)Cc1ccccc1)c1ccccc1`: the relative growth was inactive: 1.11.
The value for `C[C@@H]1CN([C@H](C)CO)C(=O)c2cc(NS(=O)(=O)c3cccs3)ccc2O[C@@H](C)CCCCO[C@@H]1CN(C)S(C)(=O)=O` was inactive: 1.05; that for `COc1ccc(S(=O)(=O)Nc2ccc3c(c2)C(=O)N([C@H](C)CO)C[C@H](C)[C@H](CN(C)Cc2ccc(C(=O)O)cc2)OCCCC[C@@H](C)O3)cc1` was inactive: 0.978; that for `Cc1ncc(NC(=O)c2ccc(CN3CCN(C)CC3)c(C(F)(F)F)c2)cc1Nc1nccc(-c2cccnc2)n1` was inactive: 0.954.
Take `COc1ccc2c3c([nH]c2c1)[C@@H](CO)N(C[C@]13CCN(CC1)CC1CCCC1)S(=O)(=O)c1cn(cn1)C`: the relative growth was inactive: 1.01.
Under `Cc1ccc(S(=O)(=O)Nc2ccc3c(c2)C(=O)N([C@H](C)CO)C[C@@H](C)[C@H](CN(C)C(=O)Nc2cccc4ccccc24)OCCCC[C@H](C)O3)cc1` stands inactive: 1.04.
`C=CCNC(N)=S`: the relative growth is inactive: 0.947.
The value for `C[C@H]1CN([C@@H](C)CO)C(=O)Cc2cc(NC(=O)C3CC3)ccc2O[C@H]1CN(C)C(=O)Nc1ccc2c(c1)OCO2` was inactive: 0.996.
`C[C@@H]1CCCCO[C@@H](CN(C)S(=O)(=O)c2cn(C)cn2)[C@@H](C)CN([C@@H](C)CO)C(=O)c2cc(NS(=O)(=O)c3cn(C)cn3)ccc2O1`: the relative growth was inactive: 1.
Consider `FC(F)(F)c1ccccc1-c1ncc(-c2ccccc2)o1`, for which the relative growth was inactive: 0.995.
For the compound `O=C(C[C@@H]1C[C@@H]2c3cc(NC(=O)c4ccc5c(c4)OCO5)ccc3O[C@@H]2[C@H](CO)O1)NCC(F)(F)F`, the relative growth is inactive: 0.955.
For the compound `C[C@H](CO)N1C[C@H](C)[C@H](CN(C)CC2CCCCC2)OCCCC[C@H](C)Oc2ccc(NS(=O)(=O)c3ccccc3)cc2C1=O`, the relative growth is inactive: 0.975.
Take `C1CN(C2CCOCC2)CCN1`: the relative growth is inactive: 1.03.
`C[C@H](CO)N1C[C@H](C)[C@H](CN(C)C(=O)Nc2cccc3ccccc23)Oc2ccc(NC(=O)Nc3ccc4c(c3)OCO4)cc2CC1=O`: the relative growth was inactive: 0.97.
With `C[C@H]1CN([C@@H](C)CO)C(=O)c2cc(NC(=O)Cn3cnnn3)ccc2O[C@H]1CN(C)Cc1ccc(C(=O)O)cc1`, the relative growth is inactive: 1.
`NC(=O)N1Cc2nccn2C[C@H](Cn2ncccc2=O)C1`: the relative growth is inactive: 0.969.
Regarding `C[N+](C)(C)CCO`, the relative growth was inactive: 1.03.
The value for `CO[C@H]1O[C@H](CO)[C@@H](OC(=O)Nc2ccc(Br)cc2)[C@@H]2OC(=O)[C@H](Cc3cccc(Br)c3)C/C=C/C[C@@H](Cc3cccc(Br)c3)C(=O)O[C@@H]12` was inactive: 1.03.
Consider `Cc1noc(C)c1S(=O)(=O)Nc1ccc2c(c1)CC(=O)N([C@H](C)CO)C[C@@H](C)[C@H](CN(C)C(=O)Nc1ccccc1)O2`, for which the relative growth was inactive: 1.01.
The value for `CC(C)NC(=O)N(C)C[C@@H]1Oc2c(NS(=O)(=O)c3cccs3)cccc2C(=O)N([C@@H](C)CO)C[C@H]1C` was inactive: 0.981; that for `CN(C)Cc1cn(CC[C@@H]2CC[C@H](N)[C@@H](CO)O2)nn1` was inactive: 0.996.
For the compound `C[C@@H]1CCCCO[C@H](CN(C)C(=O)C2CCCCC2)[C@H](C)CN([C@H](C)CO)C(=O)c2cc(NC(=O)C3CCCCC3)ccc2O1`, the relative growth was inactive: 1.02.
Consider `COc1ccc(C#Cc2ccc3c(c2)O[C@@H](CN(C)C(=O)c2ccccn2)[C@H](C)CN([C@@H](C)CO)S3(=O)=O)cc1`, for which the relative growth was inactive: 1.04.
As for `O=C(CCCCCNC(=O)OCc1ccc([C@H]2[C@H](C(=O)NCc3ccccc3)c3ccccc3C(=O)N2Cc2ccccc2)cc1)NO`, the relative growth was inactive: 1.02.
With `CC[C@@H](C)[C@H]1NC(=O)NC1=O`, the relative growth was inactive: 0.938.
Consider `C[C@H](CO)N1C[C@H](C)[C@@H](CN(C)Cc2ccncc2)Oc2ccc(NC(=O)Cn3cnnn3)cc2C1=O`, for which the relative growth was inactive: 1.02.
As for `C[C@@H]1CN([C@H](C)CO)S(=O)(=O)c2ccc(C#Cc3cccc(F)c3)cc2O[C@@H]1CN(C)C(=O)CN1CCOCC1`, the relative growth was inactive: 1.01.
For the compound `C[C@H](O)C#Cc1ccc2c(c1)O[C@H](CN(C)C(=O)C1CCCCC1)[C@H](C)CN([C@H](C)CO)S2(=O)=O`, the relative growth is inactive: 0.985.
Take `O=C(C[C@H]1CC[C@H]2[C@@H](COC[C@@H](O)CN2C(=O)C2CC2)O1)NCc1ccncc1`: the relative growth was inactive: 0.963.
Consider `Cc1cccc(NC(=O)Nc2ccc3c(c2)C(=O)N(C)[C@H]2CC[C@H](CC(=O)NCc4ccccc4Cl)O[C@H]2CO3)c1`, for which the relative growth was inactive: 1.01.
Under `Cc1noc(C)c1NC(=O)Nc1ccc2c(c1)C(=O)N([C@H](C)CO)C[C@@H](C)[C@H](CN(C)S(=O)(=O)c1ccc(F)cc1)OCCCC[C@H](C)O2` stands inactive: 1.01; under `C[C@H]1CN([C@@H](C)CO)C(=O)c2cc(NC(=O)Cc3cn(C)c4ccccc34)ccc2O[C@H]1CN(C)Cc1ccc(C(F)(F)F)cc1`, inactive: 1.04.
Turning to `CC1=C(C#N)C(=O)NC(=O)C1=NNc1ccc(S(N)(=O)=O)cc1`, the relative growth is inactive: 0.987.
As for `C[C@H]1CN([C@@H](C)CO)C(=O)c2cc(NC(=O)Nc3ccccc3)ccc2O[C@@H]1CN(C)Cc1ccc(C(F)(F)F)cc1`, the relative growth was inactive: 0.985.
In the case of `C[C@@H]1CN([C@H](C)CO)S(=O)(=O)c2ccc(C#Cc3ccc(F)cc3)cc2O[C@H]1CN(C)S(=O)(=O)c1ccc(F)cc1`, the relative growth is inactive: 1.04.
As for `C[C@@H]1CN([C@@H](C)CO)C(=O)c2cc(NS(=O)(=O)c3ccc(Cl)cc3)ccc2O[C@@H](C)CCCCO[C@@H]1CN(C)C(=O)Nc1ccc2c(c1)OCO2`, the relative growth is inactive: 1.01.
